Experimental data reported in PubChem BioAssay AID1508624 (National Center for Advancing Translational Sciences (NCATS), 2021).
Hit rate of the full screen: of about 48,000 compounds, about 120 (0.25%) were called active. About 4% were inconclusive and are not listed. Calls follow the shape of the dose curve; as a rule, active = well fitted activation curve with a large enough effect; inconclusive = small, poorly fitted or top-dose-only effect, or another doubt; inactive = no such curve, though single readings can be large or run the other way. Some of the results follow.

assay: Primary qHTS for Identification of Small Molecule Activators of Huntingtin-Antisense Promoter Activity; settings: HEK293 HTT-AS promoter firefly luciferase reporter, 24 h; series mostly up to 57.5 µM; activity change, positive = activation: at the top concentration; also: nearly all actives have a fitted effect of over 55% in size
Method in brief: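 Firefly luciferase signal from promoter-reporter HEK293 cells was scaled between vehicle (0%) and zero RLU (-100%). Compounds were tested at final concentrations of up to 57.5 uM over 24 h at 37 degrees C. PTC124 at 50 uM final served as control inhibitor.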

SMILES	activity change, positive = activation
COc1ccc(N(CC(=O)N2CCN(c3cc(C)ccc3C)CC2)S(=O)(=O)c2c(C)noc2C)cc1	inactive: -24.4%
O=C(NC1CC(=O)N(c2ccccc2)C1)C1CCCC1 (stereo not drawn)	inactive: -8.72%
Cc1ccc2c(c1)c(=O)c1ccccc1n2CCCC(=O)Nc1ccc(F)cc1F	inactive: -12% [at 11.5 µM, percent change from vehicle, -100% = no light]
COC(=O)c1ccc2nc(C)cc(Nc3ccc(O)cc3)c2c1	inactive: -15%
CCOC(=O)c1cc(-c2ccc(F)cc2)n(CCC(=O)Nc2ccccc2OC)c1C	inactive: -25.4%
CC(Sc1ncc(S(=O)(=O)c2ccc(C(C)C)cc2)c(N)n1)C(=O)Nc1ccccc1 (stereo not drawn)	inactive: -46.6%
COc1ccc(NC(=O)Cn2c(=O)n(-c3ccc(Cl)cc3)c(=O)c3c(C)c(C(=O)N(C)C)sc32)cc1Cl	inactive: -7.7%
Cc1ccc(CSc2nc(=O)c3c(C)cc(C)nc3n2C2CC2)cc1	inactive: -36.6%
CCOC(=O)c1ccc(NC2=CC(c3ccc(Br)cc3)N(c3ccc(C(=O)OCC)cc3)C2=O)cc1 (stereo not drawn)	inactive: -12.4%
COC(=O)c1cc(Cl)c(NC(=O)/C=C/c2ccc(Cl)cc2Cl)cc1OC	inactive: 1.58%
CCOC(=O)c1ccc(NC(=O)C(=O)NCc2ccco2)cc1	inactive: 20.4%
COc1cccc(Cc2nc3ccccc3nc2SCC(=O)N2CCc3ccccc32)c1	inactive: -6.1%
Cc1cccc(Oc2nc3c(C)cccn3c(=O)c2/C=C(\C#N)c2nc3ccccc3s2)c1	inactive: 5.21% [at 11.5 µM, percent change from vehicle, -100% = no light]
O=S(=O)(c1ccccc1)c1nc(-c2cccc(Cl)c2)oc1NCc1ccccc1	inactive: -20.5%
COc1ccc(Br)c2c1-c1nc(NC(=O)c3ccccc3SC)sc1C2	inactive: -16.4%
CCOc1ccc(N2CC(c3nc4ccccc4n3CCCOc3ccc(OC)cc3)CC2=O)cc1 (stereo not drawn)	inactive: 3.62%
COCCNC(=O)CSc1nnc(-c2ccc(OC)c(OC)c2)c(-c2ccc(OC)c(OC)c2)n1	inactive: 1.58%
COC(=O)c1c(NC(=O)c2ccc(S(=O)(=O)N3CCCCC3C)cc2)sc2c1CCN(C(C)C)C2 (stereo not drawn)	inactive: -11.3%
CCOC(=O)N1CCc2c(sc(NCc3ccc(OC)c(Br)c3)c2C(=O)Nc2cc(OC)ccc2OC)C1	inactive: -18%
CCOC(=O)c1ccccc1NC(=O)N(Cc1ccc(C)cc1)Cc1cccn1-c1nnc(N2CCCC2=O)s1	inactive: -11%
Cc1ccccc1-c1noc(CSc2nnc(Cc3ccccc3)n2-c2ccc(F)cc2)n1	inactive: -46%
COc1ccc(-c2noc(CSc3nnc(-c4ccncc4)n3-c3ccccc3)n2)cc1	inactive: -42%
C#C[C@]1(O)CC[C@@H]2[C@@H]3CCC4=CC(=O)CC[C@@H]4[C@H]3CC[C@@]21CC	inactive: -27.7%
